Laboratory results: PubChem BioAssay AID624418 (National Center for Advancing Translational Sciences (NCATS), 2012)
Out of some 410,000 compounds screened, about 530 (0.13%) were called active. The inconclusive results got no clear call from the source; some entries with a clear call stand among them for comparison. Calls come from the whole dose curve; as a rule, active = well fitted inhibition curve with a large enough effect; inconclusive = small, poorly fitted or top-dose-only effect, or another doubt; inactive = no such curve, though single readings can be large or run the other way. Potencies of inconclusive entries are doubtful fits and often do not repeat.

Assay: qHTS of GLP-1 Receptor Inverse Agonists: Cytotox Screen
Conditions: HEK293 cAMP-luciferase reporter cells, luminescence, 24 h; activity change, negative = inhibition: at 38.3 µM (top of the series) unless noted
Outline: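 Cells in DMEM/10% Nu serum/1% pen-strep, 1536-well format. Pre-incubated 12 h, dosed with 23 nL compound, incubated a further 24 h. Luciferase detection, 12 min at room temp, luminescence.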
% is set by controls: 0 for no effect and ±100 for the full control effect; potency is the fitted concentration of half-maximal effect.

| SMILES | activity change, negative = inhibition | Potency |
| --- | --- | --- |
| COc1ccccc1Nc1c2ccccc2nc2ccccc12 | inconclusive: -70.4% [inhibitor] |  |
| CC(=O)Nc1ccccc1-c1nnn(CC(=O)Nc2ccc3c(c2)OCCO3)n1 |  | inactive |
| CN(C)CCCNC(=O)c1ccc(-c2nc(-c3ccc(Cl)cc3)cs2)cc1 |  | inconclusive: 11.2 µM [inhibitor, partial curve, poor fit] |
| O=S(=O)(c1cnc(Cl)c(Cl)c1)N1CCCc2ccccc21 |  | inconclusive: 25.1 µM [inhibitor, single point] |
| CCOC(=O)c1c(C)c(-c2ccccc2)n(CC(=O)NC2CCCCC2)c1C |  | inconclusive: 28.2 µM [inhibitor, single point] |
| Cc1cc(C)cc(C(=O)NC(CC(N)=O)c2ccc(NCCN3CCCC3)c([N+](=O)[O-])c2)c1 (stereo not drawn) |  | inactive |
| Cc1ccc(SCCNC(=S)Nc2cc(C)cc(C)c2)cc1 |  | inconclusive: 10 µM [inhibitor, partial curve] |
| COc1ccc(C2SCCN2C(=S)Nc2cccc(Cl)c2)cc1 (stereo not drawn) |  | inconclusive: 31.6 µM [inhibitor, partial curve, poor fit] |
| COc1ccc(Cl)cc1NC(=O)c1nn(-c2ccc(C)cc2)c(=O)n(C)c1=O |  | inactive |
| CC(C)(C)C(=O)Cn1nc(Cl)nc1Cl |  | inactive |
| O=C(c1ccc(Cl)c([N+](=O)[O-])c1)N1CCN(c2ccccc2)CC1 |  | inconclusive: 12.6 µM [inhibitor, single point] |
| CNC(=O)c1[nH]cnc1C(=O)NCC(=O)OC(C)(C)C |  | inconclusive: 4.47 µM [inhibitor, partial curve] |
| COc1cc(C(=O)O[C@H]2C/C(C)=C/CC[C@@]3(C)O[C@@H]3[C@H](O)[C@@H]2C(C)C)cc(OC)c1OC |  | inactive |
| CCNC(=S)NNC(=O)CCn1c2ccccc2c2ccccc21 |  | inconclusive: 5.62 µM [inhibitor, partial curve] |
| CCC(Sc1nc(-c2ccccc2F)nc2c1Cc1c(CO)cnc(C)c1O2)C(=O)Nc1cc(C)ccc1C (stereo not drawn) |  | inactive |
| CC(C)(C)[C@H](N)C(=O)N[C@H]1CCC2C3CC=C4C[C@@H](O)CC[C@]4(C)C3CC[C@@]21C (stereo partly drawn) |  | inconclusive: 11.2 µM [inhibitor, partial curve, poor fit] |
| CCCc1ccc(-c2cc(C(=O)N/N=C/c3ccc([N+](=O)[O-])o3)c3ccccc3n2)cc1 |  | inactive |
| OC(COc1ccc(CNCCc2ccc(C(F)(F)F)cc2)cc1)CN1CCCCC1 (stereo not drawn) |  | inconclusive: 22.4 µM [inhibitor, single point] |
| CCOc1ccc(-n2nc3ccc(NC(=O)c4ccc5c(c4)OCCO5)cc3n2)cc1 |  | inactive |
| O=[N+]([O-])c1ccc(Nc2nc(N/N=C\c3ccc4c(c3)OCO4)nc(N3CCCCC3)n2)cc1 |  | inconclusive: 11.2 µM [inhibitor, partial curve, poor fit] |
| CCN(CC(=O)Nc1ccccc1C(F)(F)F)C(=O)c1ccccc1OCc1ccc(F)cc1 |  | inactive |

| SMILES | activity change, negative = inhibition | Potency |
| --- | --- | --- |
| OC(COc1ccc2cc(Br)ccc2c1)CN1CCCC1 (stereo not drawn) |  | inconclusive: 28.2 µM [inhibitor, single point] |
| Cc1ccc(Cl)cc1N1CCN(C(=O)c2ccc(CS(=O)(=O)c3ccccc3C)o2)CC1 |  | inconclusive: 11.2 µM [inhibitor, single point] |
| COc1cc(C[C@@H](C)[C@@H](C)Cc2ccc(O)c(OC)c2)ccc1O |  | inconclusive: 5.01 µM [inhibitor, full curve] |
| CCCS(=O)(=O)N1CC(=O)N(c2ccc(Cl)cc2C)C(C)(C(=O)NC2CCCC2)C1 (stereo not drawn) |  | inactive |
| C/C(=C1/SC(N2CC(C)OC(C)C2)=NC1=O)c1ccccc1 (stereo not drawn) |  | inconclusive: 0.794 µM [inhibitor, full curve, poor fit] |
| CCN(CC)C(=O)c1sc(NC(=O)c2c(OC)cccc2OC)c(C#N)c1C |  | inconclusive: 28.2 µM [inhibitor, single point] |
| CCOc1cc([N+](=O)[O-])cc2c1C(=O)Nc1ccccc1O2 |  | inconclusive: 31.6 µM [inhibitor, single point] |
| Cc1nn(-c2ccccc2)c(C)c1NC(=O)c1ccc(S(=O)(=O)N2CCCC2)cc1 |  | inconclusive: 6.31 µM [inhibitor, partial curve, poor fit] |
| COCCCNC(=S)N/N=C/c1ccc(OC)c(Br)c1 |  | inconclusive: 28.2 µM [inhibitor, single point] |
| CCOc1cc(CN2CCc3c([nH]c4ccccc34)C2)ccc1OC |  | inconclusive: 8.91 µM [inhibitor, single point] |
| CCOC(=O)c1ccccc1NC(=O)c1cncc(Br)c1 |  | inactive |
| O=C(Nc1cccc([N+](=O)[O-])c1)c1ccc([N+](=O)[O-])o1 |  | inconclusive: 10 µM [inhibitor, single point] |
| CC(NC(=O)c1ccc2c(c1)CCN2S(=O)(=O)c1ccc(Cl)cc1)c1ccccc1 (stereo not drawn) |  | inactive |
| C/C(=N\Nc1ccc2nncn2n1)c1ccccn1 |  | inconclusive: 5.01 µM [inhibitor, full curve, poor fit] |
| Nc1nccc(/C=C/c2c(Cl)cccc2Cl)n1 |  | inconclusive: 28.2 µM [inhibitor, single point] |
| O=C(c1ccoc1)N1CCN(c2cc(-c3ccco3)nc3cc(-c4ccccc4)nn23)CC1 |  | inconclusive: 31.6 µM [inhibitor, single point] |
| O=c1c(-c2ccco2)[n+]([O-])c2ccccc2n1OCc1c(F)cccc1F |  | inconclusive: 1 µM [inhibitor, full curve, poor fit] |
| CCCCCCn1c(=O)n2n(c1=O)[C@@H]1CN(S(=O)(=O)c3ccc(C)cc3)C[C@]1(O)[C@@H](OC(=O)Nc1cccs1)C2 |  | inconclusive: 22.4 µM [inhibitor, single point] |
| O=C(N/N=C/c1cccc([N+](=O)[O-])c1O)c1cccs1 |  | inconclusive: 0.891 µM [inhibitor, full curve, poor fit] |
| Cc1c(NC(=O)c2cc(-c3ccccc3)nc3ccccc23)c(=O)n(-c2ccccc2)n1C |  | inconclusive: 20 µM [inhibitor, single point] |
| CCC(=O)NC1=C(Nc2ccc(N)cc2)C(=O)c2ccccc2C1=O | inconclusive: -50.6% [inhibitor] |  |

| SMILES | activity change, negative = inhibition | Potency |
| --- | --- | --- |
| CCC[C@@H](CNC)NC[C@H](Cc1ccccc1)NCCCCc1ccccc1 |  | inconclusive: 11.2 µM [inhibitor, partial curve, poor fit] |
| O=C(Nc1ccc(N2CCN(Cc3ccccc3F)CC2)cc1)c1ccc([N+](=O)[O-])o1 |  | inconclusive: 1.41 µM [inhibitor, full curve] |
| O=C1CCCN1CCCN1CC(C(=O)N(CCO)Cc2ccccc2)CCC1=O (stereo not drawn) |  | inactive |
| Cc1cccc(C(=O)Nc2nc(C)c(C(=O)Nc3ccc4c(c3)CCC4)s2)c1 |  | inconclusive: 3.55 µM [inhibitor, partial curve, poor fit] |
| CCC(=C(c1ccc(OC)cc1)c1ccc(OC)cc1)c1cn(CC(O)CN(CCO)CCO)c2ccccc12 (stereo not drawn) |  | inconclusive: 22.4 µM [inhibitor, single point] |
| O=C1c2cc(CO)cc(O)c2C(=O)c2c(O[C@@H]3OC(CO)[C@@H](O)[C@@H](O)[C@@H]3O)cccc21 (stereo partly drawn) |  | inactive |
| COc1ccc(-c2n[nH]c(=S)n2-c2ccc(C)cc2C)cc1 |  | inconclusive: 5.62 µM [inhibitor, partial curve, poor fit] |
| COc1ccccc1N1N=C(C(=O)c2ccccc2)C2C(=O)N(c3ccc(Br)cc3)C(=O)C21 (stereo not drawn) |  | inconclusive: 28.2 µM [inhibitor, partial curve, poor fit] |
| C=CCOc1ccc(CN(C)c2ccc(S(=O)(=O)N3CCN(C)CC3)cc2[N+](=O)[O-])cc1 |  | inconclusive: 12.6 µM [inhibitor, partial curve, poor fit] |
| Cc1cnc(NC(=O)CSc2nnc(Cc3ccccc3)o2)s1 |  | inconclusive: 7.08 µM [inhibitor, partial curve, poor fit] |
| C=CCN1C(=O)/C(=C/c2ccc(OCC(=O)O)cc2)S/C1=N/c1nccs1 |  | inconclusive: 11.2 µM [inhibitor, single point] |
| CCOC(=O)c1cccc(NC(=O)[C@@H](c2ccccc2)N2Cc3ccccc3C2=O)c1 |  | inactive |
| COc1cccc2c(=O)c(C(=O)NCc3cccs3)c[nH]c12 |  | inconclusive: 28.2 µM [inhibitor, single point] |
| CCCCNC(=S)N(C)/N=C/c1ccc(OCC(=O)Nc2c(C)cc(C)cc2C)c(OC)c1 |  | inactive |
| S=C1NC(c2ccccc2)=CC(c2ccccc2)N1 (stereo not drawn) |  | inconclusive: 28.2 µM [inhibitor, single point] |
| O=C(NCC1CCN(Cc2cccc(Cl)c2)CC1)Nc1cc(Cl)ccc1Cl |  | inconclusive: 28.2 µM [inhibitor, single point] |
| COc1cccc(NC(=S)N(CCCN2CCCC(C)C2)Cc2cccs2)c1 (stereo not drawn) | inactive: -2.03% [at 7.66 µM] |  |
| O=C(NC(=S)Nc1ccccc1[N+](=O)[O-])c1cncc(Br)c1 |  | inconclusive: 22.4 µM [inhibitor, single point] |
| Cc1ccc(C)c(-n2c(Cc3cccs3)n[nH]c2=S)c1 |  | inconclusive: 28.2 µM [inhibitor, single point] |
| Cc1cccnc1NCc1ccc(O)c2ncccc12 |  | inconclusive: 3.55 µM [inhibitor, full curve, poor fit] |
| Cc1ccc2[nH]c3c(=O)n(CC(=O)Nc4ccccc4N4CCN(C)CC4)ncc3c2c1 |  | inconclusive: 28.2 µM [inhibitor, single point] |
